Measured values from PubChem BioAssay AID1645887 (National Center for Advancing Translational Sciences (NCATS), 2021).
“And” between values parts separate entries of the source, which are not always exact repeats. Identical values can stand only once. Screen size: about 16,000 compounds; about 40 (0.2%) were called active. Inconclusive results (about 1%) are left out. Calls follow the shape of the dose curve; as a rule, active = well fitted activation curve with a large enough effect; inconclusive = small, poorly fitted or top-dose-only effect, or another doubt; inactive = no such curve, though single readings can be large or run the other way. The list shows a part of the results.

Target: Rap guanine nucleotide exchange factor 4 (Homo sapiens) (UniProt Q8WZA2)
Test: Validation qHTS for agonist of cAMP-regulated guanine nucleotide exchange factor 4 (EPAC2);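 also: exchange makes BODIPY-GDP fluorescence drop when released from Rap1B; series mostly up to about 150 µM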
Conditions: EPAC2 Rap1B BODIPY-GDP exchange, fluorescence; activation: active compounds read high
Method in brief: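 Signal normalized against 6.5 mM cAMP as agonist control. Mix of EPAC2 (100 nM), RAP1B-BODIPY-GDP (250 nM) and GDP (50 uM) was read kinetically at 480/540 nm, every 5 min over 30 min, after 5 min room-temperature incubation with compound.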
% is scaled to controls: 0 for no effect and ±100 for the full control effect.

Chain of UniProt Q8WZA2 (Q8WZA2 whole entry, looked up): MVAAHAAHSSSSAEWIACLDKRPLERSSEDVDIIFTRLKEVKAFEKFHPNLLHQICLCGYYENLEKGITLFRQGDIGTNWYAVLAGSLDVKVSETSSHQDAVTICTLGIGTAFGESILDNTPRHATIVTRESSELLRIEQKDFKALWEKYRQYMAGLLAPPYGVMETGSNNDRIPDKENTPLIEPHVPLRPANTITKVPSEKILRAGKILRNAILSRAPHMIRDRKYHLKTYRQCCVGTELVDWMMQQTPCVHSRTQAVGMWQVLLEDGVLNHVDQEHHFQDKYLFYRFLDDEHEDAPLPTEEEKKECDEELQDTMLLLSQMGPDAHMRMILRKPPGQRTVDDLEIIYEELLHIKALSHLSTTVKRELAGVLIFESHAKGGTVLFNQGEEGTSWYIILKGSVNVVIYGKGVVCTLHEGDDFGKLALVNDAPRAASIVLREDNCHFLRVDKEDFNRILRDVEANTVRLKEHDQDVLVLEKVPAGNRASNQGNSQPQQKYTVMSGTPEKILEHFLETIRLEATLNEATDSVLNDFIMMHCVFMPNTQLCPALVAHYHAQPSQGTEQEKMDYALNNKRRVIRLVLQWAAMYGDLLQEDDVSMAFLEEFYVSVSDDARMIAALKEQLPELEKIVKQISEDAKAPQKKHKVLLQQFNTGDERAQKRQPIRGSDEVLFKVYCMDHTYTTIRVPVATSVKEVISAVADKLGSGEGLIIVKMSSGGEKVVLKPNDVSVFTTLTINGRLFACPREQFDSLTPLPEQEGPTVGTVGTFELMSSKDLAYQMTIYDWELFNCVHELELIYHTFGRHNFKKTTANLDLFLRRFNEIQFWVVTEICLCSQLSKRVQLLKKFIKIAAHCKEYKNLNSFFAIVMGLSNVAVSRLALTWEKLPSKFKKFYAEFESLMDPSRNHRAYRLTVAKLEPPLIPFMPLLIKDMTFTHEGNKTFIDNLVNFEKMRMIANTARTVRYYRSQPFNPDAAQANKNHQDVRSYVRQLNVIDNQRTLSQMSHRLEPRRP

SMILES	activation
O=C(Oc1ccccc1)N1CCC2(CCN(Cc3ccccc3)CC2)CC1	inactive: -16.2%
CC(C)=CCCC1(C)C=Cc2c(O)c3c(c(CC=C(C)C)c2O1)OC12C(=CC4CC1C(C)(C)OC2(C/C=C(/C)C(=O)O)C4=O)C3=O (centres undefined)	inactive: -53.4%
O=C1c2ccccc2-c2cccc3cccc1c23	inactive: 24.1%
CSCC[C@H](NC(=O)[C@H](Cc1ccccc1)NC(=O)CNC(=O)CNC(=O)[C@@H](N)Cc1ccc(O)cc1)C(=O)O	inactive: 5.13%
CNc1ccc2oc(C[C@H]3O[C@]4(CC[C@H]3C)O[C@H]([C@H](C)C(=O)c3ccc[nH]3)[C@H](C)C[C@H]4C)nc2c1C(=O)O	inactive: -15.1%
CNCC/C=C/c1cccnc1	inactive: -0.407%
C[C@](O)(CS(=O)(=O)c1ccc(F)cc1)C(=O)Nc1ccc(C#N)c(C(F)(F)F)c1	inactive: 13%
NCC(O)c1ccc(O)cc1 (centres undefined)	inactive: -0.724% and inactive: -8.94%
COC(=O)N1CCN(C(=O)Cc2ccc(Cl)c(Cl)c2)C(CN2CCCC2)C1 (centres undefined)	inactive: 1.27% and inactive: 1.21%
COc1ccc2[nH]cc(CCN(C)C)c2c1	inactive: -8.91%
CC1C(=O)OC2C1CC[C@@]1(C)C=CC(=O)[C@@]3(C)O[C@@]213 (some centres undefined)	inactive: -14.8%
Cc1nnc2n1-c1sc(Br)cc1C(c1ccccc1Cl)=NC2	inactive: 8.86%
N#Cc1nn(-c2c(Cl)cc(C(F)(F)F)cc2Cl)c(N)c1S(=O)C(F)(F)F (centres undefined)	inactive: -36.3% and inactive: -27.9% and inactive: -24.1%
O=C(Oc1ccccc1)N1CCC[C@@]2(CCN(Cc3ccccc3)C2)C1	inactive: -1.45%
CN1CC[C@@H]2CN3CCc4cccc(c43)[C@H]2C1	inactive: 2.5%
COc1cc(CC(C)N)c(OC)cc1Br (centres undefined)	inactive: -6.33% and inactive: 10.2%
C[N+](C)(C)CC(=O)[O-]	inactive: -3.82%
N#CC1(N2CCCCC2)CCCCC1	inactive: -19.5%
CNC1[C@@H](O)C(OC2C(N)C[C@H](N)[C@@H](O[C@@H]3OC(C(C)O)C(O)C(O)C3N)C2O)OC[C@]1(C)O (some centres undefined)	inactive: -10.3%
C[N+]1(C)C2CCC1CC(OC(=O)C(CO)c1ccccc1)C2 (centres undefined)	inactive: -11.5% and inactive: -12.1%
CCCN(CCC)C1Cc2cc(OC)c(OC)cc2C1	inactive: -14.7% and inactive: -4.86% and inactive: 5.64%
CC1CCC(C(C)C)C(OC(=O)c2ccccc2N)C1 (centres undefined)	inactive: -10.3%
O=c1c2ccccc2[se]n1-c1ccccc1	inactive: 7.23% and inactive: 3.37% and inactive: -15%

SMILES	activation
C[C@H]1[C@H]2Cc3ccc(O)cc3[C@]1(C)CCN2CCc1ccccc1	inactive: -6.19%
c1ccc2c(c1)Nc1ccccc1S2	inactive: 2.83%
O=C(O)c1nn(Cc2ccc(Cl)c(Cl)c2)c2ccccc12	inactive: -13%
C[C@]12CC[C@H]3[C@@H](CC=C4C[C@@H](O)CC[C@@]43C)[C@@H]1CC[C@@H]2O	inactive: 8.58%
CC(C)(C)C(O)C(Oc1ccc(Cl)cc1)n1cncn1 (centres undefined)	inactive: -11.3%
Nc1ccc(Cl)cc1	inactive: 25.8%
CC(C)CN1CCCC2(CCN(C(=O)c3ccncc3)CC2)C1	inactive: -7.81%
CN[C@@H](C)[C@H](O)c1ccccc1	inactive: -16.3%
O=C1/C(=C/c2ccc(N(CCCl)CCCl)cc2)Cc2ccccc21	inactive: -1.94%
C=CCN1CC[C@]23CCCCC2[C@H]1Cc1ccc(O)cc13 (some centres undefined)	inactive: -20.1%
CC[C@]1(O)CC[C@H]2[C@@H]3CCC4=CCCC[C@@H]4[C@H]3CC[C@@]21C	inactive: -11.2%
S=C=Nc1cccc(C2(N3CCCCC3)CCCCC2)c1	inactive: -1.36%
CNC(=O)CSP(=S)(OC)OC	inactive: -18.3%
CCNc1nc(Cl)nc(NC(C)C)n1	inactive: -2.41%
CCOC(=O)[C@]12Cc3ccsc3[C@H]1N(Cc1ccccc1)C(=O)c1ccccc12	inactive: 4.67%
COC(=O)[C@@H](N)CCCN/C(N)=N/[N+](=O)[O-]	inactive: -17.6%
O=C1C=CC[C@@H]2[C@H]3CCCN4CCC[C@@H](CN12)[C@@H]34	inactive: -25.4%
CC(C)(C#N)O[C@H]1OC(CO)C(O)C(O)C1O (some centres undefined)	inactive: -11.4%
CC12NC(Cc3ccccc31)c1ccccc12 (centres undefined)	inactive: -21.4%
COc1cc2c(cc1O)CCNC2C (centres undefined)	inactive: -16.1%
CC1=C(O)C(=O)[C@@H]2O[C@@H]2C1=O	inactive: -14.8%
C[N+]1([O-])[C@@H]2CC(OC(=O)[C@H](CO)c3ccccc3)C[C@H]1[C@@H]1O[C@@H]12 (some centres undefined)	inactive: 7.95%
CCCCCCCCOC(=O)c1ccccc1C(=O)OCCCCCCCC	inactive: -17.3%

SMILES	activation
NC(CCCCCP(=O)(O)O)C(=O)O (centres undefined)	inactive: -0.675%
O=C(Oc1ccccc1)N1CCC2(CC1)CN(C(c1ccccc1)c1ccccc1)C2	inactive: -6.88%
O=S(=O)(O)C(F)(F)C(F)(F)C(F)(F)C(F)(F)C(F)(F)C(F)(F)C(F)(F)C(F)(F)F	inactive: -77.5%
CNC1C2CN3CCC(O2)C13 (centres undefined)	inactive: -16.5%
O=C1Nc2cc(Cl)c(Cl)cc2N2CCNC[C@H]12	inactive: -17.3%
CC1(C)[C@H](C=C(Cl)Cl)[C@H]1C(=O)OCc1c(F)c(F)cc(F)c1F	inactive: 10.8%
COc1c2c(cc3c1OCO3)CCN(C)C2	inactive: -14.5%
N[C@H](Cc1o[nH]c(=O)c1Cl)C(=O)O	inactive: -13.1%
CN1CCc2cccc(Cl)c2CC1	inactive: -29.2%
C[C@]12CC[C@@H]3c4ccc(OC(=O)N(CCCl)CCCl)cc4CC[C@H]3[C@@H]1CC[C@@H]2OP(=O)(O)O	inactive: -18% and inactive: 6.74%
CC(C)CN1CC[C@@]2(CCCN(C(=O)c3ccncc3)C2)C1	inactive: 0.262%
C=CCN1CC[C@]23c4c5ccc(O)c4O[C@H]2C(=O)CC[C@@]3(O)[C@H]1C5	inactive: 1.16% and inactive: 12.7%
CCCOC(=O)c1cc2c(cn1)[nH]c1ccccc12	inactive: -12.9%
Cc1ccc2cc3c(ccc4ccccc43)c3c2c1CC3	inactive: 0.985%
OCCOc1ccccc1	inactive: -4.2% and inactive: 4.42%
O=C(Nc1cccc(F)c1)N1CC2(CCNCC2)C1	inactive: 6.07%
CCN1C[C@@]2(C)CC[C@@H](OC)[C@@]34C2C(O)[C@@]2(OCO[C@]25CC(OC)C2C[C@@]3(O)C5C2O)C14 (some centres undefined)	inactive: -13.2%
ClC1C(Cl)C(Cl)C(Cl)C(Cl)C1Cl (centres undefined)	inactive: -21.9% and inactive: -9.8%
O=C(CN1CCCC2CCCCC21)c1ccc(I)cc1 (centres undefined)	inactive: -21.4%
CCCCC[C@@H](/C=C/C=C\C/C=C\C/C=C\CCCC(=O)O)OO	inactive: -4.71%
CN1CCC2(CC1)CCN(C(=O)Oc1ccccc1)CC2	inactive: -11.8%
O=c1n(Cl)c(=O)n(Cl)c(=O)n1Cl	inactive: -24.7%
CP(=O)(O)C1=CCNCC1	inactive: 1.27% and inactive: -25.3%

SMILES	activation
C[C@@H]1O[C@H](C[N+](C)(C)C)C[C@H]1O	inactive: -0.33%
NC(=O)c1cc(N2CC2)c([N+](=O)[O-])cc1[N+](=O)[O-]	inactive: -30.1%
Cn1cc(C2=C(c3cn(C4CCN(Cc5ccccn5)CC4)c4ccccc34)C(=O)NC2=O)c2ccccc21	inactive: -2.49%
O=[N+]([O-])c1ccc(F)c([N+](=O)[O-])c1	inactive: -5.15%
COC(=O)C1=CO[C@@H](C)[C@@H]2CN3CCc4c([nH]c5cc(OC)ccc45)[C@@H]3C[C@H]12	inactive: -7.73%
O=Cc1ccco1	inactive: 10.9%
CN1CC[C@@]2(c3cccc(O)c3)Cc3nc4ccccc4cc3C[C@H]2C1	inactive: -6.05%
C[C@]12C[C@H]3S[C@H]3C[C@@H]1CC[C@@H]1[C@@H]2CC[C@]2(C)[C@@H](O)CC[C@@H]12	inactive: 4.26%
COP(=O)(OC)C(O)C(Cl)(Cl)Cl (centres undefined)	inactive: -5.47%
CNC(C)Cc1ccccc1 (centres undefined)	inactive: -10.7%
CCCC(C)C1(CC)C(=O)NC(=O)NC1=O (centres undefined)	inactive: -24.2%
C=CCc1ccc2c(c1)OCO2	inactive: -5.83%
CC(CC(C#N)(c1ccccc1)c1ccccc1)N(C)C (centres undefined)	inactive: 4.42%
Oc1cc2c(cc1O)[C@H]1c3ccccc3CN[C@H]1CC2	inactive: -3.78% and inactive: 12.4%
COc1cc2c(cc1OC)[C@@H]1C(=O)c3ccc(O)c(CC=C(C)C)c3OC1CO2 (some centres undefined)	inactive: -1.39%
Fc1ccc(C(OCCN2CCN(C/C=C\c3ccccc3)CC2)c2ccc(F)cc2)cc1	inactive: -13.7%
CC1(C)C(=O)C=C[C@@]2(C)C1CC(O)[C@]1(C)C2CC[C@@]2(C)C(c3ccoc3)OC(=O)C3O[C@]312 (some centres undefined)	inactive: -8.73%
CC(=O)C1CCC2C3CCC4CC(O)CCC4(C)C3CC(O)C12C (centres undefined)	inactive: -16.6%
O=C(Nc1ccccc1)N1CCCC2(CCN(C(=O)Oc3ccccc3)CC2)C1	inactive: -20.5%
C[C@H](NC(=O)[C@@H](N)Cc1ccc(O)cc1)C(=O)N[C@@H](Cc1ccccc1)C(=O)NCC(=O)N[C@@H](Cc1ccc(O)cc1)C(=O)N1CCC[C@H]1C(=O)N[C@@H](CO)C(N)=O	inactive: -0.804%
